# Test results published in publication PMC5836133.
# The other results are listed elsewhere or left out. At the low end of the ranking the order means little.
# System: T1, GST-NbGlk1(82-244)
# T1 sequence: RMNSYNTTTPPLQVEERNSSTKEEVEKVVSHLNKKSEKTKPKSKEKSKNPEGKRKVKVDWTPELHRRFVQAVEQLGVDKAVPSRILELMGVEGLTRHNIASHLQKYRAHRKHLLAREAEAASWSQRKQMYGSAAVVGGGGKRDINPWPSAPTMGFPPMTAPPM
# Test: protein-binding microarray;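 further: rank-based score ranging −0.5 to +0.5 with E above 0.45 taken as significant binding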
# Conditions: NbGlk1 is a Golden2-like transcription factor of Nicotiana benthamiana; high values mean tight binding; most listed sequences are background and not binding sites; double strand, one strand shown
row,Sequence,binding signal
1,ATTGGCTA,-0.0622 E-score
2,AAGTACCT,-0.149 E-score
3,ACAAGTCG,-0.0745 E-score
4,AGAATCGC,0.377 E-score
5,ACGCATGG,-0.144 E-score
6,AGGAACCA,-0.0322 E-score
7,AGCGAGTC,-0.14 E-score
8,CACACTCG,-0.0894 E-score
9,ATGTATCG,-0.133 E-score
10,AATGAGTA,0.175 E-score
11,ACGGATCG,0.177 E-score
12,AGGCGGCA,-0.0993 E-score
13,ATCCTTCC,0.118 E-score
14,AACGGGCA,-0.166 E-score
15,ACCGACCG,-0.21 E-score
16,AGTTTAGC,-0.15 E-score
17,AGATGGCC,-0.207 E-score
18,CACTTTGA,-0.159 E-score
19,ATTTTTCC,0.163 E-score
20,ATAACTAT,0.057 E-score
21,AAGCTCCC,-0.221 E-score
22,CAACGCCA,-0.0514 E-score
23,ACACTCAA,0.0262 E-score
24,AGCGCTCA,-0.0754 E-score
25,AAAGTACA,0.0661 E-score

row,Sequence,binding signal
1,ATGCAACA,0.00172 E-score
2,ATGAATAA,0.188 E-score
3,AAGGAACC,-0.141 E-score
4,AAGACGAA,0.0412 E-score
5,AACTACCT,-0.0921 E-score
6,ATATTTGC,0.338 E-score
7,AGACCCGC,-0.299 E-score
8,ACCTACAC,-0.0683 E-score
9,ACCAATCA,-0.0667 E-score
10,AGGCCTTC,-0.217 E-score
11,ATTATTGC,0.109 E-score
12,ACGTAGTC,-0.241 E-score
13,ACGACGAC,-0.143 E-score
14,AGACAAGG,-0.163 E-score
15,ATCCATTC,0.24 E-score
16,ATGATCTA,-0.00774 E-score
17,AATGTCAT,0.118 E-score
18,AAATGCCA,-0.206 E-score
19,AGCCGCAG,-0.226 E-score
20,AACCGCGG,-0.0715 E-score
21,AGTGTACA,0.0236 E-score
22,AATGCCCA,-0.059 E-score
23,AACTTGAT,0.0191 E-score
24,AATGTCTG,-0.185 E-score
25,AATTGCGA,0.314 E-score

row,Sequence,binding signal
1,ATTACGAG,0.361 E-score
2,ATTAAAGA,0.135 E-score
3,CACCACCC,-0.0112 E-score
4,ATTAGAAT,0.166 E-score
5,AGGTTTGC,-0.0248 E-score
6,AAACGTGT,-0.0621 E-score
7,ACCTTAAC,-0.161 E-score
8,AGGCTAAA,-0.0861 E-score
9,AACAATCG,0.112 E-score
10,AGCGACAA,-0.145 E-score
11,AGTTAAGA,0.048 E-score
12,AAGCCACG,-0.141 E-score
13,ATCCCGTG,0.109 E-score
14,AAAAGACG,0.153 E-score
15,ATTCCACC,0.235 E-score
16,AATGTCGG,0.00227 E-score
17,CAATAATC,0.207 E-score
18,AACCTTTC,-0.104 E-score
19,AAGAAGGA,-0.092 E-score
20,AGTTACGG,-0.108 E-score
21,AAATGAGA,0.113 E-score
22,AGGATGCA,-0.13 E-score
23,AAACCCCA,-0.272 E-score
24,CAAACGTC,-0.0703 E-score
25,ATATGAGG,0.018 E-score

row,Sequence,binding signal
1,ATTCGGAC,0.0327 E-score
2,AACCCCGT,-0.168 E-score
3,AATGGCTC,-0.143 E-score
4,ATAACCAC,-0.0206 E-score
5,AGCCGTTG,-0.0848 E-score
6,AGTTATAG,-0.102 E-score
7,ATTGAGAA,0.151 E-score
8,ACGCCTTC,-0.257 E-score
9,ATTGTACC,0.125 E-score
10,AAGTCAAG,-0.154 E-score
11,CAACTAGC,-0.173 E-score
12,AAGGTAAC,-0.119 E-score
13,AGGATGTA,-0.0598 E-score
14,AATCGAAG,0.285 E-score
15,AGAACATG,0.0757 E-score
16,ACCCCTGA,-0.146 E-score
17,ATATATAA,0.179 E-score
18,ATCGATAG,0.0926 E-score
19,AATTCGGT,0.127 E-score
20,AAATGGTT,-0.0947 E-score
21,AGACGAAC,-0.0242 E-score
22,ATCCAACA,0.237 E-score
23,AGGGTAAA,0.00341 E-score
24,AAATAGTT,0.114 E-score
25,ATAGCAGG,-0.133 E-score

row,Sequence,binding signal
1,AGTCGCGA,0.0157 E-score
2,ACAAGCAT,-0.138 E-score
3,ACCTGACA,-0.131 E-score
4,AACTTATC,0.098 E-score
5,ATCCTGTC,0.258 E-score
6,ACCCCCCA,-0.342 E-score
7,AGATTCGG,0.413 E-score
8,AAGCCGCG,-0.135 E-score
9,AATCCAAC,0.348 E-score
10,AGCACGGA,-0.0602 E-score
11,ACCCGCGT,-0.194 E-score
12,AATTTCCA,0.266 E-score
13,ACACGCGA,0.0635 E-score
14,AAGCCCCC,-0.341 E-score
15,AACTACGC,-0.0991 E-score
16,AATCCGAA,0.406 E-score
17,AATCCGGA,0.42 E-score
18,ACCTTTAT,0.0424 E-score
19,ACTTGAAT,0.0362 E-score
20,AACTTTAT,0.0708 E-score
21,CACACAAC,-0.00267 E-score
22,ATTATGCG,0.162 E-score
23,ATTGAGTG,0.052 E-score
24,AGTTCATG,-0.0855 E-score
25,ACGGAAGT,-0.143 E-score

row,Sequence,binding signal
1,ACTCACAT,0.0783 E-score
2,ACATTAAC,0.0163 E-score
3,ATAATTCA,0.154 E-score
4,AACACCCG,-0.237 E-score
5,AGTGTATC,0.117 E-score
6,AATGCACT,-0.0512 E-score
7,AACGTTTA,-0.049 E-score
8,ATGTCGAC,-0.0465 E-score
9,ACTGGGCC,-0.235 E-score
10,CACTATCA,0.0815 E-score
11,ACACCCTG,-0.188 E-score
12,AATGTCCA,-0.0844 E-score
13,AAGTGTGT,-0.126 E-score
14,ACGCGTCG,0.0588 E-score
15,AACCCTAC,-0.0834 E-score
16,AAAATAAT,0.205 E-score
17,AATTCTCC,0.151 E-score
18,ACACGATG,-0.0775 E-score
19,AGTCCGTG,-0.0354 E-score
20,ATGAACAA,0.0497 E-score
21,ATCCATCG,0.137 E-score
22,AGACCGGC,-0.248 E-score
23,AATTGAGC,-0.0944 E-score
24,ACATGGGG,-0.0997 E-score
25,ACTCCTGG,-0.234 E-score

row,Sequence,binding signal
1,CACGGGCG,-0.13 E-score
2,CAAATGGA,-0.059 E-score
3,ATTCCAGC,0.00815 E-score
4,ACATGGTA,-0.0226 E-score
5,ATTCTGCA,0.266 E-score
6,AACAGGCG,-0.165 E-score
7,AGTATCAT,0.11 E-score
8,CAAAGTTC,-0.0425 E-score
9,AGTATAAT,0.233 E-score
10,AAGCAAGG,-0.0556 E-score
11,ACCTGGAC,-0.299 E-score
12,AACGAAGA,0.0508 E-score
13,AATTATGT,0.0878 E-score
14,ATAATGCG,0.0234 E-score
15,AATTCCCA,0.151 E-score
16,ACTGGAAA,0.121 E-score
17,ACAGACCG,-0.0783 E-score
18,ACGCGTCT,-0.165 E-score
19,ACAAGCTA,-0.0787 E-score
20,AACATAAC,-0.0047 E-score
21,ACGTAGGG,-0.118 E-score
22,AGCCGTAT,0.0187 E-score
